The text below walks through data of patent US11160803B2, “Phthalazinone derivatives” (KUDOS PHARMACEUTICALS LIMITED, priority 2003, dated 2021).

The target of the assay is Mammalian PARP, isolated from Hela cell nuclear extract (Homo sapiens, UniProt P09874). Briefly: PARP inhibition assay (FlashPlate, 3H-NAD incorporation), IC50. It is filed as biochemical. How it is done:
In order to assess the inhibitory action of the compounds, the following assay was used to determine IC50 values (Dillon, et al., JBS., 8(3), 347-352 (2003)).
The total assay volume per well was 40 μl.
After 10 minutes incubation at 30° C. the reactions were initiated by the addition of a 10 μl reaction mixture, containing NAD (5 μM), ^3H-NAD and 30 mer double stranded DNA-oligos. Designated positive and negative reaction wells were done in combination with compound wells (unknowns) in order to calculate % enzyme activities. The plates were then shaken for 2 minutes and incubated at 30° C. for 45 minutes.
Following the incubation, the reactions were quenched by the addition of 50 μl 30% acetic acid to each well. The plates were then shaken for 1 hour at room temperature.
The plates were transferred to a TopCount NXT (TRADE MARK) (Packard, UK) for scintillation counting. Values recorded are counts per minute (cpm) following a 30 second counting of each well.
The % enzyme activity for each compound is then calculated using the following equation: […]
Such IC50 values are used as comparative values to identify increased compound potencies.

[1] abbreviates: PARP from Hela cell nuclear extract, NAD 5 μM, 30° C.

Where two headings read alike, the source gives them in different places.

For `COc1ccc(CCC(=O)N2CCCN(C(=O)c3cccc(Cc4n[nH]c(=O)c5ccccc45)c3)CC2)cc1` [compound 321], under setting [1], the 50% inhibitory concentration (IC50) – broadly, the concentration that gives 50% inhibition – was less than 10 nM.
As to `CCCN1CCCN(C(=O)c2cc(Cc3nnc(O)c4ccccc34)ccc2F)CC1` [compound 246], the IC50 is less than 10 nM.
In the case of `O=C(c1cccc(Cc2n[nH]c(=O)c3ccccc23)c1)N1CCCN(C(=S)Nc2ccccc2F)CC1` [compound 346], the IC50 under setting [1] is less than 10 nM.
Still for that read-out and setting: the value for `O=C(c1cc(Cc2n[nH]c(=O)c3ccccc23)ccc1F)N1CCN(c2ccccc2F)CC1` [compound 222] was less than 10 nM; that for `Cn1cc(CN2CCCN(C(=O)c3cccc(Cc4n[nH]c(=O)c5ccccc45)c3)CC2)c2ccccc21` [compound 302] was less than 10 nM.
The same measure, in the same setting: the value for `O=C(c1cccc(Cc2n[nH]c(=O)c3ccccc23)c1)N1CCC2(CC1)NCCc1c2[nH]c2ccccc12` [compound 24] was less than 10 nM; that for `Cc1nn(C)c(Cl)c1S(=O)(=O)N1CCN(C(=O)c2cccc(Cc3n[nH]c(=O)c4ccccc34)c2)CC1` [compound 62] was less than 10 nM; that for `CCN1CCN(C(=O)c2cc(Cc3n[nH]c(=O)c4ccccc34)ccc2F)CC1` [compound 253] was less than 10 nM.
On to `O=C(c1cccc(Cc2n[nH]c(=O)c3ccccc23)c1)N1CCCN(CCO)CC1` [compound 221], for which the half-maximal inhibitory concentration (IC50) under setting [1] is less than 10 nM.
On the same count and under the same terms, the value for `O=C(c1cccc(Cc2n[nH]c(=O)c3ccccc23)c1)N1CCN(C(=O)N2CCOCC2)CC1` [compound 350] was less than 10 nM; that for `O=C(NC1CCN(C(=O)OCc2ccccc2)CC1)N1CCN(C(=O)c2cccc(Cc3n[nH]c(=O)c4ccccc34)c2)CC1` [compound 178] was less than 10 nM; that for `O=C(c1cccc(Cc2n[nH]c(=O)c3ccccc23)c1)N1CCC(C(=O)N(Cc2ccccc2)Cc2ccccc2)CC1` [compound 35] was less than 10 nM.
Take `O=C(c1cccc(Cc2n[nH]c(=O)c3ccccc23)c1)N1CCCN(c2ccc(C(F)(F)F)cc2[N+](=O)[O-])CC1` [compound 33]: the IC50 under setting [1] was less than 10 nM.
Take `O=C(c1cccc(Cc2n[nH]c(=O)c3ccccc23)c1)N1CCCN(C(=S)Nc2cccc(F)c2)CC1` [compound 335]: the half-inhibitory concentration (IC50) under setting [1] is less than 10 nM.
Still for that read-out and setting: for `COc1ccccc1NC(=S)N1CCCN(C(=O)c2cccc(Cc3n[nH]c(=O)c4ccccc34)c2)CC1` [compound 347] the value was less than 10 nM; for `O=C(c1cccc(Cc2n[nH]c(=O)c3ccccc23)c1)N1CCCN(c2ncccc2[N+](=O)[O-])CC1` [compound 32], less than 10 nM.
Turning to `O=C(Nc1ccc(C(F)(F)F)cc1)N1CCCN(C(=O)c2cccc(Cc3n[nH]c(=O)c4ccccc34)c2)CC1` [compound 330], the IC50 under setting [1] was less than 10 nM.
The same measure, in the same setting: the value for `O=C(c1cccc(Cc2n[nH]c(=O)c3ccccc23)c1)N1CCCN(C(=O)c2ccno2)CC1` [compound 319] was less than 10 nM; that for `O=C(CCSc1nc2ccccc2s1)N1CCN(C(=O)c2cccc(Cc3n[nH]c(=O)c4ccccc34)c2)CC1` [compound 88] was less than 10 nM; that for `O=C(c1cccc(Cc2n[nH]c(=O)c3ccccc23)c1)N1CCCN(Cc2c[nH]c3ccccc23)CC1` [compound 306] was less than 10 nM.
As for `O=C(c1cc(Cc2n[nH]c(=O)c3ccccc23)ccc1F)N1CCCNCC1` [compound 4, 4-[3-([1,4]diazepane-1-carbonyl)-4-fluorobenzyl]-2H-phthalazin-1-one], the IC50 was less than 10 nM.
As for `Cc1nn(C)c(Cl)c1C(=O)N1CCN(C(=O)c2cccc(Cc3n[nH]c(=O)c4ccccc34)c2)CC1` [compound 123], the concentration for half-maximal inhibition (IC50) under setting [1] was less than 10 nM.
Still for that read-out and setting: for `CC(C)CCN1CCN(C(=O)c2cc(Cc3n[nH]c(=O)c4ccccc34)ccc2F)CC1` [compound 260] the value was less than 10 nM.
In the case of `CN1CCN(CCC(=O)N2CCN(C(=O)c3cc(Cc4n[nH]c(=O)c5ccccc45)ccc3F)CC2)CC1` [compound 270], the 50% inhibitory concentration (IC50) under setting [1] was less than 10 nM.
With `O=C(c1cccc(Cc2n[nH]c(=O)c3ccccc23)c1)N1CCCN(Cc2cc3ccccc3o2)CC1` [compound 292], the IC50 under setting [1] is less than 10 nM.
Turning to `Cc1cc(C)c(S(=O)(=O)N2CCN(C(=O)c3cccc(Cc4n[nH]c(=O)c5ccccc45)c3)CC2)c(C)c1` [compound 63], the 50% inhibitory concentration (IC50) under setting [1] was less than 10 nM.
Regarding `CN(C)c1ccc(NC(=S)N2CCCN(C(=O)c3cccc(Cc4n[nH]c(=O)c5ccccc45)c3)CC2)cc1` [compound 340], the 50% inhibitory concentration (IC50) under setting [1] is less than 10 nM.
On the same count and under the same terms, the value for `O=C(c1cccc(Cc2n[nH]c(=O)c3ccccc23)c1)N1CCCN(CC2CC2)CC1` [compound 279] was less than 10 nM; that for `O=C(c1cccc(Cc2n[nH]c(=O)c3ccccc23)c1)N1CCCN(Cc2coc3c(Cl)cc(Cl)cc3c2=O)CC1` [compound 287] was less than 10 nM.
As for `CCC(C)CN1CCN(C(=O)c2cc(Cc3n[nH]c(=O)c4ccccc34)ccc2F)CC1` (stereo not shown) [compound 252], the IC50 under setting [1] was less than 10 nM.
Regarding `O=C(Cc1ccc(-c2ccccc2)cc1)N1CCCN(C(=O)c2cccc(Cc3n[nH]c(=O)c4ccccc34)c2)CC1` [compound 328], under setting [1], the IC50 is less than 10 nM.
Consider `CC(C)CN1CCCN(C(=O)c2cccc(Cc3n[nH]c(=O)c4ccccc34)c2)CC1` [compound 293], for which the IC50 under setting [1] is less than 10 nM.
With `O=C(c1cc(Cc2n[nH]c(=O)c3ccccc23)ccc1F)N1CCN(Cc2ccncc2)CC1` [compound 261], under setting [1], the IC50 is less than 10 nM.
As for `CCC(=O)N1CCN(C(=O)c2cc(Cc3n[nH]c(=O)c4ccccc34)ccc2F)CC1` [compound 266], the 50% inhibitory concentration (IC50) under setting [1] was less than 10 nM.
For `COC(=O)c1cccc(NC(=S)N2CCCN(C(=O)c3cccc(Cc4n[nH]c(=O)c5ccccc45)c3)CC2)c1` [compound 342], under setting [1], the IC50 is less than 10 nM.
Take `O=C(NCc1ccccc1Cl)N1CCN(C(=O)c2cccc(Cc3n[nH]c(=O)c4ccccc34)c2)CC1` [compound 164]: the half-maximal inhibitory concentration (IC50) under setting [1] is less than 10 nM.
On the same count and under the same terms, the value for `O=C(c1cccc(Cc2n[nH]c(=O)c3ccccc23)c1)N1CCN(c2c([N+](=O)[O-])cc(C(F)(F)F)cc2[N+](=O)[O-])CC1` [compound 26] was less than 10 nM; that for `O=C(c1cc(Cc2n[nH]c(=O)c3ccccc23)ccc1F)N1CCN(c2ccc(F)cc2)CC1` [compound 236] was less than 10 nM; that for `CCCCN1CCCN(C(=O)c2cccc(Cc3n[nH]c(=O)c4ccccc34)c2)CC1` [compound 274] was less than 10 nM.
Same read-out and setting: the value for `COC(=O)c1ccccc1NC(=S)N1CCCN(C(=O)c2cccc(Cc3n[nH]c(=O)c4ccccc34)c2)CC1` [compound 344] was less than 10 nM.
As for `Cc1ccc(C(=O)C2CCN(C(=O)c3cccc(Cc4n[nH]c(=O)c5ccccc45)c3)CC2)cc1` [compound 20], under setting [1], the half-inhibitory concentration (IC50) is less than 10 nM.
As to `O=C(c1cc(Cc2n[nH]c(=O)c3ccccc23)ccc1F)N1CCN(c2cccc(C(F)(F)F)c2)CC1` [compound 223], the IC50 under setting [1] was less than 10 nM.
On to `O=C(Cc1ccc2c(c1)OCO2)N1CCN(C(=O)c2cccc(Cc3n[nH]c(=O)c4ccccc34)c2)CC1` [compound 102], for which the IC50 under setting [1] is less than 10 nM.
On the same count and under the same terms, the value for `O=C(c1cccc(Cc2n[nH]c(=O)c3ccccc23)c1)N1CCCN(c2ccc([N+](=O)[O-])cn2)CC1` [compound 34] was less than 10 nM; that for `O=C(CCN1CCCNCC1)N1CCN(C(=O)c2cc(Cc3n[nH]c(=O)c4ccccc34)ccc2F)CC1` [compound 273] was less than 10 nM; that for `O=C(c1cccc(Cc2n[nH]c(=O)c3ccccc23)c1)N1CCCN(Cc2c[nH]c(=O)[nH]c2=O)CC1` [compound 288] was less than 10 nM.
